PubChem BioAssay AID588342 (National Center for Advancing Translational Sciences (NCATS), 2011)
Values joined by “and” are separate entries in the source; they are usually repeats but may differ in a detail not shown here. Equal entries are not always repeated. The whole screen tested about 360,000 compounds, of which about 25,000 (6.9%) were called active. The inconclusive results got no clear call from the source; some entries with a clear call stand among them for comparison. The call rests on the fitted dose curve; in most records, active means well fitted inhibition curve with a large enough effect; inconclusive means small, poorly fitted or top-dose-only effect; inactive means flat fitted curve, though single readings scatter. Potencies beside an inconclusive call are fits to weak or partial responses and may not hold up.

molecular target: Luciferin 4-monooxygenase (Photinus pyralis) (UniProt P08659); experiment: qHTS profiling assay for firefly luciferase inhibitor/activator using purifed enzyme and Km concentrations of substrates (counterscreen for miR-21 project); settings: purified FLuc, luminescence inhibition; series mostly up to 57.5 µM; further: nearly all actives have a fitted effect of over 55% in size
UniProt P08659, sequence (P08659 whole entry, looked up): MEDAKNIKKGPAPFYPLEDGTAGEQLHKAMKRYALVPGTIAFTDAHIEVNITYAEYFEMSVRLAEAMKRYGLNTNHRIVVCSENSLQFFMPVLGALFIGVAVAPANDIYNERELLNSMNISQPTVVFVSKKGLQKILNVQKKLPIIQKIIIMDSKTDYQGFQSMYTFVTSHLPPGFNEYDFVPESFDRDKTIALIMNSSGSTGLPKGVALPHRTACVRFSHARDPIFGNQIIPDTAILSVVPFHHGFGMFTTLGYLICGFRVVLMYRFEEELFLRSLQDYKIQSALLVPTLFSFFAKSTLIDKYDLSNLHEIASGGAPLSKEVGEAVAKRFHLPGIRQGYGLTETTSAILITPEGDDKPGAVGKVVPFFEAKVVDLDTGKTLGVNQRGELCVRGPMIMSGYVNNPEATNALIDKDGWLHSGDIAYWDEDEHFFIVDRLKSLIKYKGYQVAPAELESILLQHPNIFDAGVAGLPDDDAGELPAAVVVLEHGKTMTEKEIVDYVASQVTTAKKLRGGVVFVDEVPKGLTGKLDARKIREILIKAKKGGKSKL
In short: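 Biochemical qHTS of compounds, final roughly 60 µM downward over six points, against 10 nM purified firefly luciferase using Km concentrations of substrates (10 uM D-luciferin, 10 uM ATP) in Tris acetate pH 7.5 buffer; luminescence output.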
Potency means the concentration at half of the fitted maximal effect; tags describe the fitted curve by direction and shape.

**Q.** `CCCCC(NC(=O)Cc1c(C)c2cc3c4c(oc3c(C)c2oc1=O)CCCC4)C(=O)O` (stereo unspecified) was tested. Which Potency did it give?
**A.** inconclusive: 19 µM [inhibitor, single point]

**Q.** For `O=C(NCc1csc(-c2cccs2)n1)c1ccsc1`, which Potency is on record?
**A.** inconclusive: 26.9 µM [inhibitor, partial curve, poor fit]

**Q.** For `O=C(O)CCn1c(SCc2cccc3ccccc23)nc2ccccc21`, which Potency is on record?
**A.** inconclusive: 23.9 µM [inhibitor, single point]

**Q.** For `Cc1cc(C)cc(NC(=O)CSc2nnc(-c3cc4occc4n3C)n2-c2ccccc2C)c1`, which Potency is on record?
**A.** inactive

**Q.** How did the Potency turn out when `COc1ccc(C(=O)CSc2nnc(-c3cc(C)cc(C)c3)o2)cc1` was run?
**A.** inactive

**Q.** How did the Potency turn out when `Cc1ccc(C(=O)OCc2cn3ccccc3n2)cc1` was run?
**A.** inconclusive: 26.9 µM [inhibitor, single point]

**Q.** How did the Potency turn out when `CC(=O)Nc1ccc(S(=O)(=O)Nc2nc3ccccc3nc2Nc2cccc(O)c2)cc1` was run?
**A.** inconclusive: 37.9 µM [inhibitor, single point]

**Q.** `CC(=O)Nc1ccc(OCc2cccc3ccccc23)cc1` was tested. Which Potency did it give?
**A.** inconclusive: 30.1 µM [inhibitor, partial curve, poor fit]

**Q.** How did the Potency turn out when `Cc1ccc(/C=C/C(=O)N2CCc3ccccc3C2)cc1` was run?
**A.** active: 10.7 µM

**Q.** Which Potency does the source give for `O=C(COc1ccc(Cl)cc1[N+](=O)[O-])N/N=C/c1cccs1` here?
**A.** inconclusive: 26.9 µM [inhibitor, single point]

**Q.** `CCc1ccc(-c2cc(C(=O)N3N=C(C(F)F)CC3(O)C(F)F)c3ccccc3n2)cc1` (stereo unspecified) was tested. Which Potency did it give?
**A.** active: 5.36 µM

**Q.** `CCCCCCSc1nsc(NC(C)=O)n1` was tested. Which Potency did it give?
**A.** inconclusive: 21.3 µM [inhibitor, partial curve]

**Q.** How did the Potency turn out when `c1csc(-c2nnc(COc3ncnc4sccc34)o2)c1` was run?
**A.** inactive

**Q.** Which Potency does the source give for `CC(=O)Nc1ccc(Nc2cc(C)c3ccccc3n2)cc1` here?
**A.** inconclusive: 26.9 µM [inhibitor, single point]

**Q.** How did the Potency turn out when `CC(=O)Cc1nsc(NC(=O)c2ccc(COc3ccccc3C)o2)n1` was run?
**A.** inconclusive: 37.9 µM [inhibitor, single point]

**Q.** For `CC(=O)Oc1ccc(/C=C2\N=C(C3CCCCC3)OC2=O)cc1`, which Potency is on record?
**A.** active: 16.9 µM

**Q.** How did the Potency turn out when `Cc1nc2cc(NC(=O)COc3ccc(C#N)cc3)ccc2n1-c1ccccc1` was run?
**A.** inconclusive: 37.9 µM [inhibitor, single point]

**Q.** `Cc1nonc1C(=O)N/N=C/c1ccccc1` was tested. Which Potency did it give?
**A.** active: 10.7 µM

**Q.** `O=C(N/N=C/c1sc(N2CCCCC2)nc1-c1cccs1)c1cccnc1` was tested. Which Potency did it give?
**A.** active: 21.3 µM

**Q.** With `CCc1ccc(-n2cccc2/C=C2/C(=N)N3C(=NC2=O)SN=C3S(C)(=O)=O)cc1` as the molecule, how does the Potency read?
**A.** active: 16.9 µM

**Q.** For `COc1ccc(/C=N/N2CCN(c3ccccc3OC)CC2)cc1OC`, which Potency is on record?
**A.** inconclusive: 21.3 µM [inhibitor, partial curve, poor fit]

**Q.** For `Cc1ccc(C2=NCN(c3ccc(C(=O)O)cc3)C(=S)N2)cc1`, which Potency is on record?
**A.** inconclusive: 19 µM [inhibitor, partial curve]

**Q.** For `O=C(NNC(=S)Nc1ccc(Cl)c(Cl)c1)c1cccc([N+](=O)[O-])c1`, which Potency is on record?
**A.** inconclusive: 37.9 µM [inhibitor, single point]

**Q.** How did the Potency turn out when `CCn1ncc(/C=C/C(=O)c2ccccc2)c1C` was run?
**A.** inconclusive: 1.9 µM [inhibitor, full curve, poor fit]

**Q.** How did the Potency turn out when `Cn1c(=O)c2c(c3ccccc31)OC(=O)CC2c1cccc(F)c1` (stereo unspecified) was run?
**A.** inconclusive: 8.49 µM [inhibitor, partial curve]

**Q.** For `O=C(O)CC(NC(=O)C1c2ccccc2Oc2ccccc21)c1ccc(OC2CCCC2)cc1` (stereo unspecified), which Potency is on record?
**A.** inconclusive: 26.9 µM [inhibitor, partial curve, poor fit]

**Q.** Which Potency does the source give for `COc1cc(/C=C/c2[nH]c(=O)[nH]c(=O)c2[N+](=O)[O-])cc([N+](=O)[O-])c1O` here?
**A.** inconclusive: 37.9 µM [inhibitor, single point]

**Q.** How did the Potency turn out when `O=C(C1CCC(Cn2c(=O)c3sccc3n(Cc3ccccc3F)c2=O)CC1)N1CCCCC1` (stereo unspecified) was run?
**A.** inactive

**Q.** For `COC(=O)c1cc(C(=O)OCC(=O)NCc2cccs2)cc([N+](=O)[O-])c1`, which Potency is on record?
**A.** inactive

**Q.** How did the Potency turn out when `CN(Cc1cccc(C(F)(F)F)c1)Cc1nc(-c2cnccn2)no1` was run?
**A.** inactive

**Q.** How did the Potency turn out when `CCCOc1ccc(C(=O)Nc2nc(C)c(Cc3ccc4c(c3)OCO4)s2)cc1` was run?
**A.** inconclusive: 21.3 µM [inhibitor, partial curve]

**Q.** `Cc1ccc(-c2cn(-c3ccccc3F)c(=S)[nH]2)cc1` was tested. Which Potency did it give?
**A.** inconclusive: 15.1 µM [inhibitor, partial curve]

**Q.** For `CCc1c(C)sc2c1CCN(C(=O)Nc1ccc(F)c(Cl)c1)C2c1ccc(F)cc1` (stereo unspecified), which Potency is on record?
**A.** inactive

**Q.** `COc1ccccc1NC(=O)C1=C(C)Nc2nc(SCc3ccccc3)nn2C1c1cccnc1` (stereo unspecified) was tested. Which Potency did it give?
**A.** inactive

**Q.** Which Potency does the source give for `COCCn1c(C)cc(/C=C2/NC(=O)N(Cc3ccc(C)cc3)C2=O)c1C` here?
**A.** inconclusive: 4.78 µM [inhibitor, partial curve]

**Q.** Which Potency does the source give for `S=c1[nH]nc(-c2ccccn2)n1/N=C/c1cccc(Cl)c1` here?
**A.** inconclusive: 37.9 µM [inhibitor, partial curve, poor fit]

**Q.** How did the Potency turn out when `O=C(CCc1nnc2ccc(NCc3ccccc3Cl)nn12)NC1CCCCC1` was run?
**A.** inactive

**Q.** Which Potency does the source give for `O=C(NC(=S)NCc1cccnc1)c1cc2ccccc2o1` here?
**A.** inconclusive: 21.3 µM [inhibitor, single point]

**Q.** `COc1ccc(NC(=O)OC(C)C)cc1` was tested. Which Potency did it give?
**A.** active: 12 µM

**Q.** For `CC(=O)N(/N=C1\Sc2ccccc2C1=O)c1ccccc1`, which Potency is on record?
**A.** inconclusive: 3.38 µM [inhibitor, partial curve, poor fit]

**Q.** Which Potency does the source give for `COc1cccc(C(=O)Nc2cccc(-c3nc4ncccc4o3)c2C)c1` here?
**A.** inconclusive: 23.9 µM [inhibitor, partial curve, poor fit]

**Q.** Which Potency does the source give for `COC(=O)c1ccc(CSc2nc3ccc(C)cc3[nH]2)o1` here?
**A.** inconclusive: 19 µM [inhibitor, single point]

**Q.** Which Potency does the source give for `O=C(Nc1ncccc1O)c1ccc(C(=O)c2ccccc2)cc1` here?
**A.** active: 26.9 µM

**Q.** Which Potency does the source give for `CCOc1ccc(-c2cc(NC(=O)c3c(F)cccc3F)c(C(=O)O)s2)cc1` here?
**A.** inconclusive: 21.3 µM [inhibitor, single point]

**Q.** Which Potency does the source give for `O=C(CSc1nnc(-c2ccccc2Cl)o1)Nc1ccc2c(c1)OCCO2` here?
**A.** inconclusive: 21.3 µM [inhibitor, partial curve, poor fit]

**Q.** For `C=CCNC(=O)c1nc2ccccc2s1`, which Potency is on record?
**A.** inconclusive: 30.1 µM [inhibitor, partial curve, poor fit]

**Q.** For `O=C(CSc1nc2c([nH]c3ccccc32)c(=O)n1-c1ccc(Cl)cc1)N1CCCC1`, which Potency is on record?
**A.** inactive

**Q.** How did the Potency turn out when `CCn1c(SCC(=O)c2ccccc2)nc2ccccc2c1=O` was run?
**A.** inconclusive: 26.9 µM [inhibitor, partial curve, poor fit]

**Q.** With `COc1ccccc1C(=O)Nc1nnc(-c2ccc3c(c2)CCCC3)o1` as the molecule, how does the Potency read?
**A.** inconclusive: 37.9 µM [inhibitor, single point]

**Q.** How did the Potency turn out when `Cc1ccc(C(C)C)c(OCCSc2nc3ccccc3n2CC(=O)O)c1` was run?
**A.** inactive

**Q.** How did the Potency turn out when `COC(=O)/C=C/COc1ccccc1[N+](=O)[O-]` was run?
**A.** active: 21.3 µM

**Q.** With `COc1cc(NC(=O)Nc2ccccc2)c(OC)cc1NC(=O)CN1CCCCC1` as the molecule, how does the Potency read?
**A.** inconclusive: 30.1 µM [inhibitor, partial curve, poor fit]

**Q.** `Brc1ccc(Oc2ncc(CN3CCOCC3)s2)cc1` was tested. Which Potency did it give?
**A.** inconclusive: 12 µM [inhibitor, partial curve]

**Q.** For `COc1ccc(-c2cn3nc(SCC(=O)Nc4ccc(C)c(Cl)c4)ccc3n2)cc1`, which Potency is on record?
**A.** active: 2.69 µM

**Q.** With `CCc1cccc(NC(=O)CCC(=O)O)c1` as the molecule, how does the Potency read?
**A.** inactive

**Q.** `Cc1sc(NC(=O)CS(=O)(=O)c2ccccc2)c(C#N)c1C` was tested. Which Potency did it give?
**A.** inconclusive: 37.9 µM [inhibitor, partial curve, poor fit]

**Q.** `O=C(OCc1ccc(Br)cc1)c1cnc(Cl)c(Cl)c1` was tested. Which Potency did it give?
**A.** inconclusive: 37.9 µM [inhibitor, partial curve, poor fit]

**Q.** For `C/C(=N\NC(=O)c1c(Br)c(C)nn1C)c1cccc(NC(=O)c2ccccc2F)c1`, which Potency is on record?
**A.** inconclusive: 2.69 µM [inhibitor, partial curve, poor fit]

**Q.** `Cc1ccc(NC(=O)c2ccccc2NS(=O)(=O)c2ccc(Cl)s2)cc1` was tested. Which Potency did it give?
**A.** inconclusive: 21.3 µM [inhibitor, partial curve, poor fit]

**Q.** Which Potency does the source give for `Cc1ccc(N2C(=O)CC(SCC(=O)Nc3ccc(S(N)(=O)=O)cc3)C2=O)cc1` (stereo unspecified) here?
**A.** active: 26.9 µM

**Q.** Which Potency does the source give for `O=C(COCc1cc(-c2ccc3c(c2)OCO3)on1)N1CCN(c2ccccc2)CC1` here?
**A.** inconclusive: 26.9 µM [inhibitor, partial curve] and inconclusive: 23.9 µM [inhibitor, single point]

**Q.** Which Potency does the source give for `COc1ccc(C(=O)COC(=O)COc2cc(C)cc(C)c2)cc1` here?
**A.** inconclusive: 37.9 µM [inhibitor, partial curve, poor fit]

**Q.** For `CCOc1ccc(N2C(=O)/C(=C/c3cc(OC)c(OC)c(OC)c3)N(CC(=O)OC)C2=S)cc1`, which Potency is on record?
**A.** inactive

**Q.** How did the Potency turn out when `Cc1oc(-c2ccccc2F)nc1CS(=O)CC(=O)NC1CCCCC1` (stereo unspecified) was run?
**A.** inactive

**Q.** For `Cc1ccc(S(=O)(=O)NCCc2cn3ccsc3n2)cc1`, which Potency is on record?
**A.** inactive

**Q.** How did the Potency turn out when `CCOC(=O)c1cc(-c2ccccc2)sc1NC(=O)C(C)Sc1nnnn1C` (stereo unspecified) was run?
**A.** inactive

**Q.** For `OCC[C@H]1C[C@@H](O)[C@H](O)[C@@]2(OCCc3ccccc32)O1`, which Potency is on record?
**A.** inactive

**Q.** For `Cc1c(Cl)cccc1NC(=O)CSc1nnc(C)n1-c1ccccc1`, which Potency is on record?
**A.** inactive

**Q.** `O=C(Nc1ccc2nc(SCC(=O)N3CCCc4ccccc43)sc2c1)c1ccccc1` was tested. Which Potency did it give?
**A.** inconclusive: 2.69 µM [inhibitor, partial curve, poor fit]

**Q.** `Cc1c(Br)cnn1C(C)C(=O)N1CCN(c2ccc(F)cc2)CC1` (stereo unspecified) was tested. Which Potency did it give?
**A.** inactive

**Q.** How did the Potency turn out when `CCc1ccc(OCC(=O)N/N=C/c2cc([N+](=O)[O-])ccc2N2CCOCC2)cc1` was run?
**A.** inconclusive: 15.1 µM [inhibitor, partial curve]
